# Data from publication PMC4336329 (PLoS ONE, 2015).
# Out of some 310,000 compounds screened, about 14,000 (4.5%) showed an effect of 50% or more. The effect is printed as a negative number. The list shows a part of the results.
# Target: human ether-à-go-go-related gene (hERG) potassium channel (human, UniProt Q12809)
# Assay: primary screen, population patch clamp on CHO cells stably expressing hERG
# 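Further: peak tail current of the secondary pulse compared with the same well before compound.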
# Sequence of human ether-à-go-go-related gene (hERG) potassium channel (Q12809 whole entry, looked up): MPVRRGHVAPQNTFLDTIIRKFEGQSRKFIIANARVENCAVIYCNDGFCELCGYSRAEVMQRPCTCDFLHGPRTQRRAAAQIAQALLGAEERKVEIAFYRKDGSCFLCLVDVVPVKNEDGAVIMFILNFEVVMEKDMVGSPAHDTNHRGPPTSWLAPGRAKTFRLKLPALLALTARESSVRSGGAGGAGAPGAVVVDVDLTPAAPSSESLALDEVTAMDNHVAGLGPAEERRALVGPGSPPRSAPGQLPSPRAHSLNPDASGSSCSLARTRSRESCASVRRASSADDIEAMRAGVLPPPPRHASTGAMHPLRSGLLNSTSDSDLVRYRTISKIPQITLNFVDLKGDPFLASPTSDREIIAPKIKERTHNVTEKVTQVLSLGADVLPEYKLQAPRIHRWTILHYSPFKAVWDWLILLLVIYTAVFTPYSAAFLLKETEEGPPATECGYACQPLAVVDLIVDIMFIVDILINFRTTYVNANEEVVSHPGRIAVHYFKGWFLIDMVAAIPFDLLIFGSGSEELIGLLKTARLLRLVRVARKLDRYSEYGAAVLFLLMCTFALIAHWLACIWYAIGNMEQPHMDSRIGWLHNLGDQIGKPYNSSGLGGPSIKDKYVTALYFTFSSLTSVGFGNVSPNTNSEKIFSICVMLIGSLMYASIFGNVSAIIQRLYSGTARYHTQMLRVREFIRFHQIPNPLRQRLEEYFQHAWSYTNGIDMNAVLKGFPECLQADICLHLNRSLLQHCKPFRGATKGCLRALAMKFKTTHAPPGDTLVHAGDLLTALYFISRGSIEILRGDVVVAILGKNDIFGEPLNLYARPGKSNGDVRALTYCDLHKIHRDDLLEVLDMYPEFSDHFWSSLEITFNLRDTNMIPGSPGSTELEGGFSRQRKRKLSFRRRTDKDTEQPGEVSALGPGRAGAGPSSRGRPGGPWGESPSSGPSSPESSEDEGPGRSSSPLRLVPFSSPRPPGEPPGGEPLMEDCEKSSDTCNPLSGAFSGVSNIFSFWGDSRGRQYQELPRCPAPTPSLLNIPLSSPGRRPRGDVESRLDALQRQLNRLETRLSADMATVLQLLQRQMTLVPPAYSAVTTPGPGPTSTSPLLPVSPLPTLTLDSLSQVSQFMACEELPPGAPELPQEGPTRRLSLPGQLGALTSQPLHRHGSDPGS
row,SMILES,"hERG current change (%, negative = inhibition) at 10uM [%]"
1,COc1ccc(S(=O)(=O)Nc2cc(C)nn2-c2ccccc2)cc1,8.58
2,Cc1cc(/C=C2\C(=O)NC(=S)N(C)C2=O)c(C)n1C1CCCCC1,31.2
3,O=C(CN1CCCc2ccccc21)Nc1ccccc1[N+](=O)[O-],15.4
4,CC(C)(C)C1CCc2c(C(=O)N/N=C/c3cccs3)csc2C1 (stereo not shown),6.11
5,CCC(C)(C)NC(=O)C(c1ccc(C)cc1)N(CC1CCCO1)C(=O)c1csnn1 (stereo not shown),10.5
6,O=C(CNC(=O)c1ccc(Br)cc1)OCC(=O)c1ccccc1,10.2
7,CC1CCN(CCOCCSc2ccc(Cl)cc2)CC1.O=C(O)C(=O)O,-72.1
8,CCn1nc(C(=O)N2CCN(Cc3ccc4c(c3)OCO4)CC2)c2ccccc2c1=O,-52.1
9,CCCN(Cc1nnc(-c2ccccc2Cl)o1)C(=O)COc1ccc(Cl)cc1,-60.5
10,N#CC(C#N)=Cc1ccc(-c2ccccc2)o1,-9.37
11,O=C1C(c2ccc(F)cc2)N(CC2COc3ccccc3O2)C(=O)CN1C1CCCCC1 (stereo not shown),-24.6
12,c1cncc(-c2nc(N3CCCCCC3)c3ccccc3n2)c1,-92.9
13,N#C/C(=C\c1ccc(OCC(N)=O)cc1)c1ccccc1,-1.83
14,O=C(CCCC(=O)N(CC(=O)NC1CCCC1)Cc1ccc(F)cc1)Nc1ccccn1,-11.6
15,COc1cc(C2SCC(=O)N2Cc2ccccc2)cc(OC)c1OC (stereo not shown),1.58
16,COc1cc(NC(=O)Cc2ccc(Cl)cc2)ccc1NC(=O)c1ccco1,-3.08
17,CCOc1ccc(NC(=O)COc2ccc(C(=O)NC3CCCc4ccccc43)cc2OC)cc1 (stereo not shown),-7.08
18,Cc1cc(Cl)c2oc(C(=O)N3CCN(c4ccncc4)CC3)c(C)c2c1,-75.9
19,CCC(O)(C(=O)Nc1ccccc1C(F)(F)F)c1ccccc1OC (stereo not shown),10.8
20,CC(=NC1CC1)C1=C(O)c2ccccc2C1=O,24
21,O=C(CCCCn1c(=O)[nH]c2ccccc2c1=O)N1CCN(c2cccc(C(F)(F)F)c2)CC1,-56.1
22,O=C(CSCc1nc2ccccc2[nH]1)Nc1ccc(Oc2ccccc2)cc1,-6.95

row,SMILES,"hERG current change (%, negative = inhibition) at 10uM [%]"
1,Cc1cccc(-c2noc(-c3ccoc3C)n2)c1,-24.1
2,NC(=O)[C@H]1CC2(CC(c3cccc(NC(=O)COc4ccc(Cl)cc4)c3)=NO2)CN1C(=O)C(c1ccccc1)c1ccccc1 (stereo partly shown),6.98
3,Cc1ccc(C(=O)NNC(=O)C(C)Oc2ccc3ccccc3c2)o1 (stereo not shown),-13.2
4,Cc1ccc(-n2c(CSc3nc(C)cc(C)n3)nnc2SCC(=O)N2CCCC2)cc1,-8.81
5,CCOC(=O)C1=C(CS(=O)(=O)c2ccccc2)NC(=O)NC1c1ccccc1OC (stereo not shown),12.3
6,N#CCC1c2ccccc2CCN1C(=O)Nc1ccc(Cl)cc1 (stereo not shown),-16.3
7,O=C(CSc1nncs1)Nc1ccc2c(c1)OCO2,48.4
8,Clc1ccc(N=c2ssnc2Cl)cc1,17.4
9,CCSC1=C(C#N)C2(CCCCC2)C(C#N)=C(N)N1,-0.905
10,CCOC(=O)C1CCN(S(=O)(=O)c2cc(F)ccc2OC)CC1,-8.23
11,CCOc1cc(NC(=O)CCl)c(OCC)cc1NC(=O)CCl,5.56
12,COC(=O)C1=C(c2cccc(OCc3ccccc3)c2)C[C@@H]2CC[C@H]1N2C(=O)NCc1cc(C)oc1C(F)(F)F,-4.89
13,CC(=O)c1c(C)[nH]c(C(=O)Nc2ccc(Cl)cc2F)c1C,0.923
14,COc1cc(OC)cc(C(=O)N[C@H](C(=O)OCC(=O)Nc2ccc(F)c(F)c2)C(C)C)c1,-8.85
15,CCN(CC(=O)Nc1ccccc1-c1ccccc1)Cc1nc2ccccc2c(=O)[nH]1,-23.4
16,CC1CC2C3CCC4=CC(=O)C=CC4(C)C3(F)C(O)CC2(C)C1(O)C(=O)CO (stereo not shown),11.1
17,Cn1cccc1C(=O)OCC(=O)c1cc2ccccc2o1,5.27
18,COc1ccc(C(=O)Nc2cccc3c2CCCC3)cc1,15.5
19,COCCCNC(=O)C1CC(=O)N(CCc2ccc(F)cc2)C1 (stereo not shown),6.62
20,Cc1cccc(C2c3[nH]c4ccccc4c3CCN2C(=O)c2cc3c([nH]c2=O)CCCC3)n1 (stereo not shown),-11.6
21,COC(=O)C1=C(C)Nc2ncnn2C1c1ccccn1 (stereo not shown),2.71
22,Cc1cc(S(=O)(=O)N(C)CCc2ccccc2)ccc1-n1cnnn1,-34

row,SMILES,"hERG current change (%, negative = inhibition) at 10uM [%]"
1,COc1ccc2[nH]c3c(c2c1)[C@@H]1CCN2C(=O)CCC[C@H](C3)[C@H]12,-23.1
2,Cc1sc(NC(=O)C2CSC3(C)CCC(=O)N23)nc1-c1ccccc1 (stereo not shown),-8.22
3,CCCc1nnc(NC(=O)c2cccs2)s1,20.1
4,CCn1cc(C(=S)N2CCC(C(N)=O)CC2)c2ccccc21,3.49
5,CCn1ccc(C(=O)Nc2c(C)nn(Cc3c(F)c(F)c(F)c(F)c3F)c2C)n1,26.7
6,CC(=O)N1CCCc2cc(S(=O)(=O)CCC(=O)Nc3cccc(C)c3C)ccc21,7.92
7,S=c1[nH]nc(C2CCCCC2)n1/N=C/c1ccc(Cl)cc1,8.98
8,CCn1c(O)c(N=NC2=NC(=O)CS2)c2cc(C)ccc21,14.4
9,CC(=O)Nc1ccc(S(=O)(=O)N2CCN(C(=O)C3COc4ccccc4O3)CC2)cc1 (stereo not shown),-7.33
10,COCCNC(=O)C(c1cccc(OC)c1)N(Cc1cccs1)C(=O)Cn1nnc2ccccc21 (stereo not shown),15
11,O=S(=O)(c1ccc(SCc2cccc(Cl)c2)nc1)N1CCCC1,-9.81
12,O=C(COc1ccccc1-c1ccccc1)c1ccccc1,-26.7
13,Oc1c(CN2CCN(c3ccccn3)CC2)cc(Cl)c2cccnc12,-48.7
14,O=C(O)CSCC(=O)Nc1ccc(C2CCCCC2)cc1,2.24
15,COc1ccccc1CCNC(=O)C(=O)NCC1OCCN1S(=O)(=O)c1ccc(Cl)cc1 (stereo not shown),-22.3
16,Cc1nn2c(-n3ccnc3C)c3c(nc2c1-c1ccccc1)CCC3,-29.6
17,CCCCC(=O)c1ccc(O)cc1O,-1.99
18,CCC1CCCCN1CCCNC(=O)Cn1ncn2nc(-c3ccc(OC)cc3)cc2c1=O (stereo not shown),-42.1
19,CC1CCN(C(=O)c2cc(-c3ccc(Cl)c(Cl)c3)on2)CC1,5.97
20,CS(=O)(=O)N1CCc2cc(C(=O)Nc3ccc(Cl)cc3)ccc21,3.06
21,O=C(Nc1ccc(N2CCN(C(=O)c3ccco3)CC2)cc1)c1cccc(F)c1,-44.8
22,CCOC(=O)c1ccc(S(=O)(=O)N2CCC(C(=O)O)CC2)cc1,19.6

row,SMILES,"hERG current change (%, negative = inhibition) at 10uM [%]"
1,Cc1nc2cc(NC(=O)c3ccc(Br)s3)ccc2s1,20
2,CCN(c1ccc2c(c1)OCO2)S(=O)(=O)c1cc(Br)cc2c1N(C(=O)C1CC1)CC2,8.05
3,c1nc2sc3c(c2c2nnnn12)CCCC3,0.454
4,COc1cc(O)c(C(CC(=O)N2CCCCC2)c2cc(OC)c(OC)c(OC)c2)c(OC)c1 (stereo not shown),14.2
5,Cc1ccc(C(O)(C(=O)NNS(=O)(=O)c2ccc(C)cc2)c2ccc(C)cc2)cc1,-5.55
6,CC1CCN(Cc2c(C#N)c3ccccc3n2C)CC1,-4.98
7,CCC(=O)NC(=S)Nc1cccc(Cl)c1N1CCCCC1,0.421
8,CC(C1CC1)N(Cc1ccccc1)C(=S)Nc1cccc(C(F)(F)F)c1 (stereo not shown),1.76
9,Cc1nn(C)c(C(=O)NCc2ccc(Cl)cc2)c1Cl,-0.714
10,Cc1cc(C(=O)Nc2ccccc2)oc(=O)c1,11.6
11,COc1ccc(NC(=O)CSc2nnc(NC(=O)c3ccco3)s2)cc1OC,15
12,COc1cc(/C=C2/SC(=S)N(c3c(C)n(C)n(-c4ccccc4)c3=O)C2=O)ccc1O,-28.6
13,Cc1ccc(-c2noc(-c3c(C)noc3C)n2)cc1,7.59
14,CCC(=O)c1ccc(OCC(=O)OCC(=O)Nc2sccc2C(N)=O)cc1,3.22
15,Clc1ccc(OC2CCN(Cc3nc(CC4CC4)no3)CC2)cc1,-38.4
16,COC(=O)c1ccc(Oc2nc(Nc3ccc(F)cc3)nc(N3CCCC3)n2)cc1,-1.54
17,O=C1CC(C(=O)NCCc2ccccc2)SC(=Nc2ccccc2)N1 (stereo not shown),12.1
18,O=C(CCC(=O)c1cccs1)NCc1cccnc1,21.9
19,CCOc1ccc(N2C(=O)CC(N(Cc3ccco3)C(=O)CCC(=O)O)C2=O)cc1 (stereo not shown),27.4
20,CCC(C)NC(=O)c1ccc(CSCc2ccc(Cl)cc2)o1 (stereo not shown),-38.9
21,CCOCCCn1c(C)nc2c(c1=O)c1nc3ccccc3nc1n2-c1ccc(C)cc1,-8.15
22,CCCCNC(=S)N1CCN(C)CC1.O=C(O)C(=O)O,8.09
